Source: the RNAGym collection of RNA variant scans (doi:10.7554/elife.90254)
The source gives no read counts; variants with many changes may rest on few reads.

B1: LINE1-mini (parent)
chain: GGCAGAGCUCAACACAGCGUGGCAAAGUGGCUGUGGCUAGACUGCC

Variants of: B1
Assay: self-cleavage, relative activity (ratio to wild type); higher = more cleavage; in vitro, sequencing; the parent is a self-cleaving ribozyme

Variant	self-cleavage
U9C G21U C42U	0.04
U9G C18A A24C A41G	0.04
U9C C13A U20G U32G U34C	0
U9C U20G A26C	0.02
U9C C23U U32G G33U C37U A39G	0.02
U9C C15U U38C C42A	0
U9G C15U G22C G29U G33A A41U	0.06
U9C G22U C23U	0.02
U9C C18G G22A G35A	0.03
U9G A12C A24C	0
U9G A14U C31G	0.03
U9G C18A U28G G29U	0.05
U9C C13G G30A	0.02
U9G A12C C45U C46U	0
U9G C10A A16U	0.03
U9C U28C U34C G36A C42U	0.02
U9C C10U A11U G22C A39U C42G	0.01
U9C U32G U38A	0.04
U9G A12U C45U	0.08
U9G A14U G30A C31G G40U	0.02
U9G C10G U20A G27A	0.01
U9G C10G A25U	0
U9G C13U A14C U20A C23G G29U	0.05
U9C C23U C31G	0.01

Variant	self-cleavage
U9G C10A U20A G35C	0.01
U9G C15U G35A U43C	0.03
U9C G21A A25C U32A	0
U9G C10U A39U	0.06
U9G A12U G44A	0.07
U9G C13U A16C G36U A39U	0.05
U9G C15G U20G G22U C23U	0.04
U9C C13G A25G G29U	0.01
U9G C10U C15G C31A C37A	0
U9G A12C G35A	0.04
U9C G22C G33A A41C C46A	0.01
U9C C15G A16U G36A A41C	0.05
U9G A11U G17U G29A	0.02
U9C U34C U38A G40U	0.01
U9G C31G C45A	0.04
U9C C13A A14C G17A	0.01
U9G A14U C15A C18U G44A	0.03
U9G G17C A26U	0.01
U9C G19U A41C	0.02
U9G C15U A26G U38A	0.14
U9C G22A C23U	0.01
U9G C10A G29C	0.02
U9G C13G G29U C46A	0.06
U9G C23A G29U	0.05

Variant	self-cleavage
U9C G19U G35U	0.04
U9G C18U G36C G40U	0.04
U9G A24C G36U A41G C46A	0.05
U9C U20G G22C U28G U38C	0
U9C C13A A14U G29A U32A U38A	0.02
U9C C31A U43C	0.03
U9G C18U A25C G44U C45G	0.05
U9C G17A G30C U34A G36U U38C C46G	0
U9G A12U G17A A24C	0.03
U9C U20A U43C	0.01
U9C U28A A41U	0.06
U9G A39C C46U	0.02
U9G A11C U20G U28G G33C G40A	0.01
U9G A16U U28A U34A	0.02
U9G A26G U32G G35U	0.01
U9C C18G U38G	0
U9C G21C C23U C42U	0.04
U9G G17C A25C	0.06
U9G A12U C15G U28C G29A	0.1
U9C G21U G29C	0.03
U9C G40U C46A	0
U9C G19U G21U G40U C42A	0.17
U9C U20A G33U A39G G40C	0.03
U9G C23G U38G U43G	0.01

Variant	self-cleavage
U9C C18A U34C	0.02
U9C C13U G22U U38G	0.05
U9G C31A A41G	0.02
U9G A12U C31G	0.01
U9G A16G G44U	0.02
U9G C18A G21U C31U	0
U9G C13A G27U U43G	0.03
U9G C18A C23U	0.07
U9G C23U U28C	0.04
U9G A26G C46A	0.05
U9G A16G G29U G33U	0.03
U9C C18G G19C U20G G44U	0.02
U9C G19C G22A G29C C37G G40U C45U	0
U9C G17U C23G	0.07
U9G C18U G22C	0.04
U9C G33U C37U U38C	0.02
U9G A11C A12C G19A U20C C23U C45U	0
U9C G27C G40A	0.01
U9G A12U U43C	0
U9C C13A A16C G44U	0.2
U9C C23A G30A C31G G33A	0.03
U9C G17C C18G G22U A41C	0.01
U9C G22U U34G A39C	0.01
U9G C10U A12G G40U	0.02

Variant	self-cleavage
U9C C15U A24U G36U	0.06
U9C C15G G27U	0.01
U9G A25G U43A	0.02
U9C C13A C15A G33U	0.02
U9C C31U C42G	0.01
U9C G19A G21U	0.02
U9G C15U G19U U38A	0.07
U9G A11C G36C C37U	0.02
U9G A12G G17U C18U U20A	0
U9G C18G C45G	0.09
U9C G33A C46G	0.05
U9C C31U U32C	0
U9G A14U A25U G33U G40U C42A	0.01
U9C G17A G40U C45G	0.02
U9G A12G C18U G40U	0.02
U9G A12U C13U C15G C31U	0.02
U9G C10U C18U	1.1
U9G C10A G22U A25C G29A	0.02
U9G C13A A16C U38C	0.04
U9C U32C C37A	0.02
U9C C13A C37U	0.02
U9C U28A G30U U34C A41C	0.01
U9G G17C G36U A41G C45U	0.01
U9G A16G G17C C23A C45G	0.2

Variant	self-cleavage
U9C C37A U43A C45G	0.05
U9G A16G G19A	0.09
U9C C15U G22A	0.01
U9G C15A C18A G44A	0.04
U9G A26G G35A	0.04
U9C G22U G36U	0.05
U9G C13G C46G	0.04
U9C G33U U43A C46U	0.02
U9G A16C A24U	0.01
U9C C10U A16U C31G G40U	0
U9G C13U G29C U34C C45U	0.02
U9G C15U C37U C45A	0.12
U9G A12C G19U U20C	0.04
U9G A24U U34C	0.04
U9C C13G A41U	0.01
U9G A14C A26G	0.05
U9C C15U G21A	0.04
U9C C18G C23U A24U	0.02
U9G A12G G17U C37G C42U C45G	0.06
U9G C15A C45G	0.15
U9G C13A C15A G30C	0.03
U9C U20C G29A	0.03
U9C G21C G22U G36U C42U	0.03
U9G A12G G30U C31A U38G	0.02

Variant	self-cleavage
U9C C13U G27C	0.04
U9C G17U A25U	0.03
U9G A12C A25G A26C C37U	0
U9C G17C G29U C42G G44A	0.01
U9G A11U G22A U28C C45G	0.02
U9G G17A C37G G40A	0.04
U9G C10A C18A G22U U28G U34A	0.02
U9G C10A G17A C18A G22A C45A	0.01
U9G A12C G21C G22C A25U	0.03
U9C U28A C31U G36C	0.02
U9G G17A U34G	0.08
U9C G30C U32G	0.01
U9G C10A C15U G21U C45G	0.01
U9G A11U A12G	0.22
U9G C10U A14G C45A	0.03
U9C C15A G17U C18A G22U G35U G36C C42G C45G	0
U9G C23A G29A C45U	0.27
U9G C13U C45A	0.01
U9G C13U C15A C18A	0.41
U9G C13U C15A C18G	0.1
U9G A12G A26G A41G	0.01
U9C U20C G40U	0.02
U9C G21A C31A	0.03
